Measurements reported in PubChem BioAssay AID588591 (National Center for Advancing Translational Sciences (NCATS), 2011).
Hit rate of the full screen: of about 390,000 compounds, about 4,700 (1.2%) were called active. The inconclusive results got no clear call from the source; some entries with a clear call stand among them for comparison. The call rests on the fitted dose curve; in most records, active means well fitted inhibition curve with a large enough effect; inconclusive means small, poorly fitted or top-dose-only effect, or another doubt; inactive means no such curve, though single readings can be large or run the other way. Where the call is inconclusive, the potency comes from a doubtful curve fit.
Potency means the concentration at half of the fitted maximal effect; tags describe the fitted curve by direction and shape.

What follows are compounds tested against DNA polymerase eta (Homo sapiens) (UniProt Q9Y253) (assay: qHTS for Inhibitors of Polymerase Eta). Settings: recombinant Pol eta, fluorescent DNA replication assay; series mostly up to 114 µM.
UniProt Q9Y253, sequence (Q9Y253 whole entry, looked up): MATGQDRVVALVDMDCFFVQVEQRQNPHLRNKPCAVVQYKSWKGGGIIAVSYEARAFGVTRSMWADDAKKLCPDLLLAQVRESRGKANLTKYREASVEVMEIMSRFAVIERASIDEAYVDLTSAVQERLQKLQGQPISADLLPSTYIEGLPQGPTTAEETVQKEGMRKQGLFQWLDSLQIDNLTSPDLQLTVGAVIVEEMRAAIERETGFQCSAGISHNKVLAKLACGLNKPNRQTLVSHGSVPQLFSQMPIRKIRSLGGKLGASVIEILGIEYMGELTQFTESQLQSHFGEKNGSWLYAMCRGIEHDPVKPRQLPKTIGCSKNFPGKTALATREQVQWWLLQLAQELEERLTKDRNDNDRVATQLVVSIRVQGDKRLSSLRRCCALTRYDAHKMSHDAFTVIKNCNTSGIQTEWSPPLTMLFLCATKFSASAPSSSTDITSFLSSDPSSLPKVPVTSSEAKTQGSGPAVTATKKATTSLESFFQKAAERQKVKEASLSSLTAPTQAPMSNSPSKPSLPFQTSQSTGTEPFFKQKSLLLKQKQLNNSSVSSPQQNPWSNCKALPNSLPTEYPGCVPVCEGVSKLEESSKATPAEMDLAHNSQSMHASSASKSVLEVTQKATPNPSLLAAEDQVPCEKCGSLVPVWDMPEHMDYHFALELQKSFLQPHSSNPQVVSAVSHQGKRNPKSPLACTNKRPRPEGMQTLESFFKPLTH
How it was run: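 Pol eta (10 nM) was preincubated with compounds for 15 min at room temperature, after which fluorescent replication substrate (50 nM final) was added to start the reaction. Fluorescence was read kinetically at 0 and 10 min.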
In the case of COc1ccc(C(=O)COC(=O)CCn2c(C)csc2=O)c(OC)c1, the Potency is reported as inconclusive: 22.4 µM [inhibitor, single point]. O=C1C(Nc2ccccc2)=C/C(=N/S(=O)(=O)c2cccs2)c2ccccc21 was tested, and the Potency was inconclusive: 28.2 µM [inhibitor, partial curve]. For Cc1cc2oc(=O)cc(Cn3ncc(Cl)c(Cl)c3=O)c2cc1Cl, the Potency was inconclusive: 44.7 µM [inhibitor, partial curve]. With CCn1c2c(c(=O)n3ncc(C(=O)N4CCN(c5ccc(Cl)cc5)CC4)c13)CN(Cc1ccc(OC)cc1)CC2 the Potency was inconclusive: 79.4 µM [inhibitor, partial curve, poor fit]. For CCC(Oc1ccc(F)cc1)C(=O)Nc1c(C(=O)c2ccc(C)cc2)oc2ccccc12 (stereo not drawn), the Potency was “inactive”. In the case of COc1ccc(Nc2cc3n(c(=O)n2)CCc2cc(OC)c(OC)cc2-3)cc1, the Potency is reported as “inactive”. In the case of CCOc1ccc(C(=O)NCC2CCN(CC3CCCCC3)CC2)cc1, the Potency is reported as inconclusive: 100 µM [inhibitor, single point]. O=C(CSc1nc2scc(-c3ccco3)c2c(=O)n1-c1ccccc1)NCC1CCCO1 (stereo not drawn) was tested, and the Potency was inconclusive: 15.8 µM [inhibitor, full curve, poor fit]. In the case of FC(F)(F)c1cccc(N2CCC(N=CN3CCCCCC3)=N2)c1, the Potency is reported as active: 89.1 µM. In the case of COCCn1cnnc1SCC(=O)Nc1sc2c(c1C#N)CCC2, the Potency is reported as inconclusive: 14.1 µM [inhibitor, full curve, poor fit]. In the case of CCN1CCN(CC(=O)Nc2nc3ccc(C)cc3s2)CC1, the Potency is reported as “inactive”. For COCCCOc1cc(NCc2ccccc2)c2ncn(C(C)C)c2c1, the Potency was inconclusive: 89.1 µM [inhibitor, partial curve, poor fit]. In the case of O=C(Nc1ccc(-c2nnc(-c3ccccc3)o2)cc1)c1ccc(Br)o1, the Potency is reported as inconclusive: 28.2 µM [inhibitor, single point]. For NS(=O)(=O)c1ccc(N/C=C\C(=O)c2ccc3ccccc3c2)cc1, the Potency was inconclusive: 3.55 µM [inhibitor, full curve, poor fit]. In the case of Fc1c(F)c(C(F)(F)F)c(F)c(F)c1N1CCN(c2ccc3nnc(C(F)(F)F)n3n2)CC1, the Potency is reported as inconclusive: 31.6 µM [inhibitor, partial curve, poor fit]. With CC1CCN(C(=O)Cn2cc(C(F)(F)F)ccc2=O)c2ccccc2S1 (stereo not drawn) the Potency was “inactive”. For COCC(=O)Nc1nnc(COc2ccc(Cl)cc2)s1, the Potency was inconclusive: 25.1 µM [inhibitor, single point]. With O=C(O)CC(C(=O)O)N1C(=O)/C(=C/c2ccc(-c3nc4ccccc4s3)o2)SC1=S (stereo not drawn) the Potency was active: 2.82 µM.
